Experimental findings from the antibiotic and cytotoxicity screens of Wong et al. (2023) are described below.

The other results are listed elsewhere or left out.

In one assay the test system is HSkMC. As to the kind of experiment: cytotoxicity call (relative viability < 0.9). Conditions: 10 µM.
Another assay has as its system HepG2. As to the kind of experiment: cytotoxicity call (relative viability < 0.9). Conditions: 10 µM.
For the next assay, the system named is S. aureus RN4220. Description: growth inhibition call (relative growth <= 0.2). Conditions: 50 µM.

In the case of `CO[C@@H]1CN(C)C(=O)c2ccc(NC(=O)C3CC3)cc2OC[C@H](C)N(C(=O)Cc2ccccn2)C[C@@H]1C`, the cytotoxicity call with HSkMC and with HepG2 was “inactive” throughout. For the same compound, the growth inhibition call with S. aureus RN4220 is “inactive”.

For the compound `COc1cccc(S(=O)(=O)N(C)C[C@H]2Oc3cc(C#CCC(C)C)ccc3S(=O)(=O)N([C@H](C)CO)C[C@H]2C)c1`, the cytotoxicity call in the assay on HSkMC and in the assay with HepG2 was “inactive” each time. Also, in the assay on S. aureus RN4220, the growth inhibition call was “inactive”.

Consider `COc1ccccc1C#Cc1ccc2c(c1)O[C@H](CN(C)Cc1cccnc1)[C@@H](C)CN([C@H](C)CO)S2(=O)=O`, for which the cytotoxicity call in the assay on HSkMC was “inactive”. Also, in the assay with HepG2, the cytotoxicity call is “active”. Moreover, the growth inhibition call with S. aureus RN4220 was “inactive”.

`C[C@H]1CCCCO[C@H](CN(C)CC2CCCCC2)[C@@H](C)CN([C@@H](C)CO)C(=O)c2cc(NC(=O)c3ccncc3)ccc2O1`: the cytotoxicity call in the assay with HSkMC and in the assay with HepG2 was “inactive” throughout. In the assay with S. aureus RN4220, the growth inhibition call is “inactive”.

Consider `COc1ccc2c3c(n(c2c1)C)[C@H](CO)N(CC1CCOCC1)C[C@]13CN(C1)C(=O)Cc1cccnc1`, for which the cytotoxicity call in the assay with HSkMC and in the assay with HepG2 was “inactive” in each case. The growth inhibition call in the assay with S. aureus RN4220 was “inactive”.

As to `C[C@@H]1CN([C@H](C)CO)S(=O)(=O)c2ccc(C#CCN(C)C)cc2O[C@@H]1CN(C)Cc1ccccn1`, the cytotoxicity call in the assay with HSkMC and in the assay with HepG2 was “inactive” each time. Further, the growth inhibition call in the assay on S. aureus RN4220 was “inactive”.

Take `CCCCn1nc(C2CC2)nc1Cn1ncnn1`: the cytotoxicity call with HSkMC and with HepG2 was “inactive” throughout. Moreover, in the assay with S. aureus RN4220, the growth inhibition call is “inactive”.

Regarding `CN1CCCN(c2ccccc2CN)CC1`, the cytotoxicity call in the assay on HSkMC and in the assay with HepG2 was “inactive” in each case. The growth inhibition call in the assay on S. aureus RN4220 was “inactive”.

Take `CC(C)(C)[S@](=O)N1Cc2cc(C(=O)NCc3ccncc3)nc(-c3cccc(-c4cccc(C#N)c4)c3)c2[C@@H]1CCO`: the cytotoxicity call in the assay with HSkMC and in the assay on HepG2 was “inactive” each time. Further, the growth inhibition call in the assay on S. aureus RN4220 was “inactive”.

On to `CC1(C)OC2CC3C4CCC5=CC(=O)CCC5(C)C4(F)C(O)CC3(C)C2(C(=O)CCl)O1` (stereo not drawn), for which the cytotoxicity call in the assay with HSkMC and with HepG2 was “inactive” each time. Moreover, the growth inhibition call in the assay on S. aureus RN4220 was “inactive”.

Regarding `COC(=O)c1ccccc1N(C)S(C)(=O)=O`, the cytotoxicity call in the assay with HSkMC and with HepG2 was “inactive” each time. The growth inhibition call in the assay with S. aureus RN4220 was “inactive”.

Regarding `COc1ccc2c3c(n(c2c1)C)[C@H](CO)N(C[C@]13CN(C1)C(=O)CN1CCOCC1)C(=O)Nc1ccc(cc1)F`, the cytotoxicity call in the assay with HSkMC and in the assay with HepG2 was “inactive” throughout. Besides, the growth inhibition call with S. aureus RN4220 is “inactive”.

Regarding `Cc1ccc(S[C@]2(C(=O)NCc3ccccc3)CC(=O)N(Cc3ccccc3C(F)(F)F)[C@@H]2c2ccc(CO)cc2)cc1`, the cytotoxicity call in the assay on HSkMC and in the assay with HepG2 was “inactive” in each case. Besides, in the assay on S. aureus RN4220, the growth inhibition call is “inactive”.

On to `CC(COc1ccccc1)NC(C)C(O)c1ccc(O)cc1.Cl` (stereo not drawn), for which the cytotoxicity call with HSkMC and with HepG2 was “inactive” throughout. For the same compound, the growth inhibition call in the assay on S. aureus RN4220 was “inactive”.

As to `COc1ccc(CN(C)C[C@@H]2OCCCC[C@@H](C)Oc3ccc(NC(=O)CCC(F)(F)F)cc3C(=O)N([C@H](C)CO)C[C@@H]2C)cc1`, the cytotoxicity call with HSkMC and in the assay on HepG2 was “inactive” throughout. Moreover, the growth inhibition call in the assay on S. aureus RN4220 was “inactive”.

In the case of `c1ccc([C@@H]2Oc3ccccc3[C@@H]3Oc4ccccc4C[C@@H]23)cc1`, the cytotoxicity call in the assay on HSkMC and in the assay with HepG2 was “inactive” throughout. In addition, in the assay on S. aureus RN4220, the growth inhibition call was “inactive”.

In the case of `O=c1n(-c2ccc(F)cc2)nc2n1CCCN2`, the cytotoxicity call with HSkMC and with HepG2 was “inactive” in each case. Moreover, the growth inhibition call in the assay on S. aureus RN4220 is “inactive”.

Consider `C[C@@H]1CN([C@H](C)CO)C(=O)c2cccc(NC(=O)c3ccncc3)c2O[C@H]1CN(C)S(=O)(=O)c1cn(C)cn1`, for which the cytotoxicity call with HSkMC and with HepG2 was “inactive” throughout. Moreover, in the assay with S. aureus RN4220, the growth inhibition call was “inactive”.

Consider `Cc1ccc(S(=O)(=O)N(C)C[C@@H]2Oc3ccc(NS(C)(=O)=O)cc3C(=O)N([C@@H](C)CO)C[C@H]2C)cc1`, for which the cytotoxicity call in the assay on HSkMC and in the assay on HepG2 was “inactive” throughout. In addition, the growth inhibition call with S. aureus RN4220 is “inactive”.

Regarding `O=C(C[C@H]1CC[C@H]2[C@@H](COC[C@@H](O)CN2C(=O)Nc2ccc(F)cc2)O1)NCCCN1CCOCC1`, the cytotoxicity call in the assay on HSkMC and with HepG2 was “inactive” each time. The growth inhibition call in the assay with S. aureus RN4220 is “inactive”.

In the case of `O=c1[nH]c(=O)n(Cc2ccccc2)c2nc[nH]c12`, the cytotoxicity call in the assay on HSkMC and in the assay with HepG2 was “inactive” throughout. Also, the growth inhibition call with S. aureus RN4220 was “inactive”.

Regarding `Cn1cnc(CCNC(=O)C[C@@H]2CC[C@H]3[C@@H](COC[C@H](O)CN3C(=O)Nc3ccc(Cl)cc3)O2)c1`, the cytotoxicity call with HSkMC and with HepG2 was “inactive” each time. For the same compound, the growth inhibition call in the assay with S. aureus RN4220 was “inactive”.

As for `COc1ccc(S(=O)(=O)Nc2ccccc2CN(C)C/C=C/c2ccc(Cl)cc2)cc1.O=P(=O)OO`, the cytotoxicity call in the assay on HSkMC and in the assay with HepG2 was “inactive” each time. Further, the growth inhibition call in the assay with S. aureus RN4220 was “inactive”.

As for `C[C@H]1CN([C@@H](C)CO)C(=O)Cc2cc(NS(=O)(=O)c3ccc(Cl)cc3)ccc2O[C@H]1CN(C)S(C)(=O)=O`, the cytotoxicity call in the assay on HSkMC and in the assay with HepG2 was “inactive” throughout. In addition, the growth inhibition call with S. aureus RN4220 is “inactive”.

Turning to `C[C@H]1CN([C@@H](C)CO)C(=O)c2ccccc2-c2ccccc2CO[C@@H]1CN(C)C(=O)Nc1cccc(Cl)c1Cl`, the cytotoxicity call with HSkMC and with HepG2 was “inactive” throughout. Moreover, in the assay with S. aureus RN4220, the growth inhibition call is “inactive”.

Turning to `CCCCCCCCCCCCCCCCC(C(=O)O)C(O)(CC(=O)O)C(=O)O` (stereo not drawn), the cytotoxicity call with HSkMC and in the assay with HepG2 was “inactive” throughout. Moreover, the growth inhibition call in the assay on S. aureus RN4220 was “inactive”.

Take `CC(=O)Nc1ccc(C(C)C)c(C)c1`: the cytotoxicity call in the assay with HSkMC and with HepG2 was “inactive” in each case. In addition, the growth inhibition call with S. aureus RN4220 is “inactive”.

Consider `COc1ccccc1S(=O)(=O)N(C)C[C@@H]1OCc2cn(nn2)CCCC(=O)N([C@H](C)CO)C[C@H]1C`, for which the cytotoxicity call in the assay on HSkMC and in the assay on HepG2 was “inactive” throughout. Also, in the assay on S. aureus RN4220, the growth inhibition call is “inactive”.

With `COc1cc2c(c3ccccc13)OC(C)(C)C=C2`, the cytotoxicity call in the assay with HSkMC and with HepG2 was “inactive” in each case. In addition, the growth inhibition call in the assay on S. aureus RN4220 was “inactive”.

For the compound `O=C(CCCCCNC(=O)OCCCOc1ccc(C2=N[C@]3(Cc4ccccc4)C(=O)N(Cc4ccccc4)Cc4ccccc4[C@@H]3O2)cc1)NO`, the cytotoxicity call in the assay on HSkMC (human skeletal muscle cells) and in the assay with HepG2 was “inactive” throughout. The growth inhibition call with S. aureus RN4220 was “inactive”.

Take `CC(N)(Cc1ccc2c(c1)OCO2)C(=O)O` (stereo not drawn): the cytotoxicity call with HSkMC and in the assay on HepG2 was “inactive” in each case. Further, in the assay with S. aureus RN4220, the growth inhibition call is “inactive”.
